# Test results: paper PMC5998136
# By UniProt entry, the sequences of proteins in these tests, tags left out. Where a name states a change or a piece, a line headed by the entry shows the natural chain unless it says otherwise. Chains listed by the source or under a name are the forms on record and can include a tag or linker. Residues count along the entry.
# UniProt Q04207: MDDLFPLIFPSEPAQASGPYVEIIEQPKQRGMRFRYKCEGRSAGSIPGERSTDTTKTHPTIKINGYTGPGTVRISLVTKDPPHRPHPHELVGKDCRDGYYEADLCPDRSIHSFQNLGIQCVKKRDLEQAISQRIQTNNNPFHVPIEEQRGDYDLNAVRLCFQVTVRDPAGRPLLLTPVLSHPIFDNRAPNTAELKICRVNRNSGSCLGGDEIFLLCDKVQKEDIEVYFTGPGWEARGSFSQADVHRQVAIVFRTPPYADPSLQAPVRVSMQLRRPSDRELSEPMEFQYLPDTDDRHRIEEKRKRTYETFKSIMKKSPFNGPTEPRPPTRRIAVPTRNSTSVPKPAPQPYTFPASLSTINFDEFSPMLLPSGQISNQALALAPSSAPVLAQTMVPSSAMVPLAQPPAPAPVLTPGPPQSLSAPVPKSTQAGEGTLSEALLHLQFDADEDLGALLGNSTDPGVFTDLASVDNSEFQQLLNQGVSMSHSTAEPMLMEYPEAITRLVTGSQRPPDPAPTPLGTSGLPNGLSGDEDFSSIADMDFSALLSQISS
# UniProt O54943: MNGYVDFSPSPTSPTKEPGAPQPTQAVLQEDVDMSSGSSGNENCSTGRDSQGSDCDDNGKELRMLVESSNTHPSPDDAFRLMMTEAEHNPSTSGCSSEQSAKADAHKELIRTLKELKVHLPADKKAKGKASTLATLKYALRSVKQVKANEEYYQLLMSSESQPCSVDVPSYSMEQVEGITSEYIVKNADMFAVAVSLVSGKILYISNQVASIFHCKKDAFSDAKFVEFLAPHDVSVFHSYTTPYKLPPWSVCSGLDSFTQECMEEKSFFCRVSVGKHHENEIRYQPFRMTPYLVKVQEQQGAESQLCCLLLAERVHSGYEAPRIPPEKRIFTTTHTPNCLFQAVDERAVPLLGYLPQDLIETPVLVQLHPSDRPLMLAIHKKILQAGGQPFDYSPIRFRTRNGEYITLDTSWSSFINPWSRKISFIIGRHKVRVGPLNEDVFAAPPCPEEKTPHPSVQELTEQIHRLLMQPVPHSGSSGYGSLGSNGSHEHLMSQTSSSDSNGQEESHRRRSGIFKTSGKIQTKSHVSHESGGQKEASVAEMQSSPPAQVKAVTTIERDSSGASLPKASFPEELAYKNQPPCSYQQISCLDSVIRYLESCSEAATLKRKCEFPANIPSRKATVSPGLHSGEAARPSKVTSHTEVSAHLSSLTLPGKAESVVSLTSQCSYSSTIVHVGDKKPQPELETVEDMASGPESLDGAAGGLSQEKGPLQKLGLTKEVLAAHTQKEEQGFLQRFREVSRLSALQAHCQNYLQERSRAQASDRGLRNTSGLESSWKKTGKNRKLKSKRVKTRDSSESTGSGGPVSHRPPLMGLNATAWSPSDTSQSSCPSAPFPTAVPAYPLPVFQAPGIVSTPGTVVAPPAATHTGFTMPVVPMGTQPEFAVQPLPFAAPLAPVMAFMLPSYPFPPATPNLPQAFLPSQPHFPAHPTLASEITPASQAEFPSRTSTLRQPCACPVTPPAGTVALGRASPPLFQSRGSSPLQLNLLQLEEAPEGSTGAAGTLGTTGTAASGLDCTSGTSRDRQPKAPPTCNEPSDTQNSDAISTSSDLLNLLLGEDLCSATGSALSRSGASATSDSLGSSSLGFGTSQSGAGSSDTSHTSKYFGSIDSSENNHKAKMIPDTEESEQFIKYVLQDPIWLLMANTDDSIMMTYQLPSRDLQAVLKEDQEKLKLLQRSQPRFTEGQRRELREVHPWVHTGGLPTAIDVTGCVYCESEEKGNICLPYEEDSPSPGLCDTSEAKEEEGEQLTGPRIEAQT
# Mutated PER2 protein (lacking amino acid residues 348-434) (O54943, form named): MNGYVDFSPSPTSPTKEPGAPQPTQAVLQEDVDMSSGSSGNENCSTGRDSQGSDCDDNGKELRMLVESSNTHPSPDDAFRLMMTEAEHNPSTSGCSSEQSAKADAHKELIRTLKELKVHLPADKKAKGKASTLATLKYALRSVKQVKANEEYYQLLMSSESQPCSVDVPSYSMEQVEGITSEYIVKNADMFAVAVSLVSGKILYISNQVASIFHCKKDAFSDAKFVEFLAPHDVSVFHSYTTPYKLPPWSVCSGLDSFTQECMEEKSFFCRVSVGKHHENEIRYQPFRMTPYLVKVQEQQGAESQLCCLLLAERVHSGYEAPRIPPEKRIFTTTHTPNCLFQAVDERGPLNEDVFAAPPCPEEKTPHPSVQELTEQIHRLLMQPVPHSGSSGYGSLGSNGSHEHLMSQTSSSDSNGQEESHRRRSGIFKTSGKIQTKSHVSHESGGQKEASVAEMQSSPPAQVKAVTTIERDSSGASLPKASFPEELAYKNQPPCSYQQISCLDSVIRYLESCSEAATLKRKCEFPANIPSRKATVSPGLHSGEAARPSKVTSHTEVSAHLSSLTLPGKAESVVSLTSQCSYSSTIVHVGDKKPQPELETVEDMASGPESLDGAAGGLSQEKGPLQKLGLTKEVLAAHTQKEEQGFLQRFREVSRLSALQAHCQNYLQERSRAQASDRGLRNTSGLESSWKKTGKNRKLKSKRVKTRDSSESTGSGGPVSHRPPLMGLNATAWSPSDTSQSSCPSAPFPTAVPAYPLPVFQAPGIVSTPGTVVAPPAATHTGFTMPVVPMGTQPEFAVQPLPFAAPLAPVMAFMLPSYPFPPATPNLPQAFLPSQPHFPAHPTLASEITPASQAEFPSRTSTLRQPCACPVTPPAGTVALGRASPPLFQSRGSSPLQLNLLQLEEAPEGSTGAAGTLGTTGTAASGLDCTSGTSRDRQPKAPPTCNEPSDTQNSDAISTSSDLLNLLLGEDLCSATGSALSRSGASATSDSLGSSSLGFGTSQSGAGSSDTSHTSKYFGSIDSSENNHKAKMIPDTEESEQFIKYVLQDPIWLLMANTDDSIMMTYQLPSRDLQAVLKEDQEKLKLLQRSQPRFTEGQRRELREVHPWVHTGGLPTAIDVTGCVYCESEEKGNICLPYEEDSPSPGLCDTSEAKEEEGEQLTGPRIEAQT
# These are yes or no findings as the source states them, for the method shown. In cells and extracts the contact can be indirect. Some binding calls cover weakened binding; strength is not graded here.
# T1: Na+/H+ exchanger regulatory factor-1 (mouse (endogenous in mouse liver)) (UniProt P70441)
# T1 sequence: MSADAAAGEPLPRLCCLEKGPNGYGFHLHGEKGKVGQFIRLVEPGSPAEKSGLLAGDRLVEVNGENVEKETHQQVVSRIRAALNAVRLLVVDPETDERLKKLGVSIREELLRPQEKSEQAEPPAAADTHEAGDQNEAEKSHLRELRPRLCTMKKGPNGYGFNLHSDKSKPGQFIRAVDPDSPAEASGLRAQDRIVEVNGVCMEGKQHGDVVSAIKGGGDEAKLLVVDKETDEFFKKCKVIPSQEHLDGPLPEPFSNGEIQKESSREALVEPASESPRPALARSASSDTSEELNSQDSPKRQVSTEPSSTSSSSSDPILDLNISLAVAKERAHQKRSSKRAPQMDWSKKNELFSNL
# T2: fatty acid transport protein-5 (mouse (endogenous in mouse liver)) (UniProt Q4LDG0)
# T2 sequence: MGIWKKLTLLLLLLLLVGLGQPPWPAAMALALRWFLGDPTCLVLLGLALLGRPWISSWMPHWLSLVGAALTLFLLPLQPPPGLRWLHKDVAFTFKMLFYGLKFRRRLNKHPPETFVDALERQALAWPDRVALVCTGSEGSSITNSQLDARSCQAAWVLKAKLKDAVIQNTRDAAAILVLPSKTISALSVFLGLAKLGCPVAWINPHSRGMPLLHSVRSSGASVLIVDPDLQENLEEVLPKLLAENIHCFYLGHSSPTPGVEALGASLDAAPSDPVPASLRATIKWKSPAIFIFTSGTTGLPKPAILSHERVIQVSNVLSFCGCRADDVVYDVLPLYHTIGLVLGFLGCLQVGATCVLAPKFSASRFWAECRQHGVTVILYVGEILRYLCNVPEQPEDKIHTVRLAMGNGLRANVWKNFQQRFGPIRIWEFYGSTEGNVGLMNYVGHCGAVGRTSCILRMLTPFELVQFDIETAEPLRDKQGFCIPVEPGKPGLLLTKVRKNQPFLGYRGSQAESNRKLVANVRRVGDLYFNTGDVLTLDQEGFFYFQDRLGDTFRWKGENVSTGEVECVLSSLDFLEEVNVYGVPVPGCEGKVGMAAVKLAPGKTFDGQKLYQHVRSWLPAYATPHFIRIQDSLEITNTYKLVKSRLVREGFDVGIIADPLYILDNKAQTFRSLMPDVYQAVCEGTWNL
# How the values were obtained:
# [1] = target: v-rel reticuloendotheliosis viral oncogene homolog A (p65) (mouse (endogenous in mouse liver)) (UniProt Q04207); assay: co-IP; hepatic nuclear extracts prepared at ZT2 and ZT14 from wild-type and Per2m/m mice; IP with anti-p65 antibodies on protein A/G agarose (Crosslink immunoprecipitation kit), 4 °C overnight; blot for PER2 and p65
# [2] = target: PERIOD2 (mouse (endogenous in mouse liver)) (UniProt O54943); assay: co-IP; hepatic nuclear fraction of wild-type mice, two times of day; IP with anti-PER2 antibodies (Supplementary Fig. 3)
# [3] = target: T1, Na+/H+ exchanger regulatory factor-1 (mouse (endogenous in mouse liver)); assay: co-IP; hepatic membrane fractions of wild-type mice at two times of day; IP with anti-NHERF1 antibodies on protein A/G agarose, 4 °C overnight; western blot for FATP5 and EZRIN
# [4] = target: T2, fatty acid transport protein-5 (mouse (endogenous in mouse liver)); assay: co-IP; hepatic membrane fractions; IP with anti-EZRIN and anti-FATP5 antibodies (Supplementary Fig. 5)
molecule,measurement,setting,value
PERIOD2 (from UniProt O54943 1-1257),binding,[1],binds
v-rel reticuloendotheliosis viral oncogene homolog A (p65) (from UniProt Q04207 1-549),binding,[2],binds
Mutated PER2 protein (lacking amino acid residues 348-434) (from UniProt O54943 1-1257),binding,[1],no binding
"fatty acid transport protein-5 (protein, UniProt Q4LDG0 1-689) MGIWKKLTLLLLLLLLVGLGQPPWPAAMALALRWFLGDPTCLVLLGLALLGRPWISSWMPHWLSLVGAALTLFLLPLQPPPGLRWLHKDVAFTFKMLFYGLKFRRRLNKHPPETFVDALERQALAWPDRVALVCTGSEGSSITNSQLDARSCQAAWVLKAKLKDAVIQNTRDAAAILVLPSKTISALSVFLGLAKLGCPVAWINPHSRGMPLLHSVRSSGASVLIVDPDLQENLEEVLPKLLAENIHCFYLGHSSPTPGVEALGASLDAAPSDPVPASLRATIKWKSPAIFIFTSGTTGLPKPAILSHERVIQVSNVLSFCGCRADDVVYDVLPLYHTIGLVLGFLGCLQVGATCVLAPKFSASRFWAECRQHGVTVILYVGEILRYLCNVPEQPEDKIHTVRLAMGNGLRANVWKNFQQRFGPIRIWEFYGSTEGNVGLMNYVGHCGAVGRTSCILRMLTPFELVQFDIETAEPLRDKQGFCIPVEPGKPGLLLTKVRKNQPFLGYRGSQAESNRKLVANVRRVGDLYFNTGDVLTLDQEGFFYFQDRLGDTFRWKGENVSTGEVECVLSSLDFLEEVNVYGVPVPGCEGKVGMAAVKLAPGKTFDGQKLYQHVRSWLPAYATPHFIRIQDSLEITNTYKLVKSRLVREGFDVGIIADPLYILDNKAQTFRSLMPDVYQAVCEGTWNL",binding,[3],binds
"Na+/H+ exchanger regulatory factor-1 (protein, UniProt P70441-1 1-355) MSADAAAGEPLPRLCCLEKGPNGYGFHLHGEKGKVGQFIRLVEPGSPAEKSGLLAGDRLVEVNGENVEKETHQQVVSRIRAALNAVRLLVVDPETDERLKKLGVSIREELLRPQEKSEQAEPPAAADTHEAGDQNEAEKSHLRELRPRLCTMKKGPNGYGFNLHSDKSKPGQFIRAVDPDSPAEASGLRAQDRIVEVNGVCMEGKQHGDVVSAIKGGGDEAKLLVVDKETDEFFKKCKVIPSQEHLDGPLPEPFSNGEIQKESSREALVEPASESPRPALARSASSDTSEELNSQDSPKRQVSTEPSSTSSSSSDPILDLNISLAVAKERAHQKRSSKRAPQMDWSKKNELFSNL",binding,[4],binds
